# Laboratory results taken from the supplement of paper PMC8728848.
# The list shows a part of the results.
# B1: PNA (Arachis hypogaea), P02872 (protein)
# chain: MKPFCVFLTFFLLLAASSKKVDSAETVSFNFNSFSEGNPAINFQGDVTVLSNGNIQLTNLNKVNSVGRVLYAMPVRIWSSATGNVASFLTSFSFEMKDIKDYDPADGIIFFIAPEDTQIPAGSIGGGTLGVSDTKGAGHFVGVEFDTYSNSEYNDPPTDHVGIDVNSVDSVKTVPWNSVSGAVVKVTVIYDSSTKTLSVAVTNDNGDITTIAQVVDLKAKLPERVKFGFSASGSLGGRQIHLIRSWSFTSTLITTTRRSIDNNEKKIMNMASA
# Tests used:
# Experiment in all cases: glycan array binding signal (z-score within array); higher = stronger binding
# Conditions in all cases: glycan notation: IUPAC condensed, linker removed
# [1] = target: Neu5Ac(a2-8)Neu5Ac(a2-8)Neu5Ac(a2-8)Neu5Ac(a2-8)Neu5Ac
# Summary of the method: (§1)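 The binding signal is a Z-score computed within each array. Data were drawn from 3228 arrays in the Consortium for Functional Glycomics database, restricted to those with a known protein sequence. Scores were averaged over arrays of the same protein sequence at different concentrations or buffers, and over linkers, and negative values can be taken as non-binding.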
# [2] = target: Neu5Ac(a2-8)Neu5Ac(a2-8)Neu5Ac(a2-8)Neu5Ac(a2-8)Neu5Ac(a2-8)Neu5Ac
# Summary of the method: as §1
# [3] = target: Neu5Ac(a2-8)Neu5Ac(a2-8)Neu5Ac(a2-8)Neu5Ac(a2-8)Neu5Ac(a2-8)Neu5Ac(a2-8)Neu5Ac
# Summary of the method: as §1
# [4] = target: Neu5Ac(a2-8)Neu5Ac(a2-8)Neu5Ac(a2-8)Neu5Ac(a2-8)Neu5Ac(a2-8)Neu5Ac(a2-8)Neu5Ac(a2-8)Neu5Ac
# Summary of the method: as §1
# [5] = target: Neu5Ac(a2-8)Neu5Ac(a2-8)Neu5Ac(a2-8)Neu5Ac(a2-8)Neu5Ac(a2-8)Neu5Ac(a2-8)Neu5Ac(a2-8)Neu5Ac(a2-8)Neu5Ac
# Summary of the method: as §1
# [6] = target: Neu5Ac(a2-8)Neu5Ac(a2-8)Neu5Ac(a2-8)Neu5Ac(a2-8)Neu5Ac(a2-8)Neu5Ac(a2-8)Neu5Ac(a2-8)Neu5Ac(a2-8)Neu5Ac(a2-8)Neu5Ac
# Summary of the method: as §1
# [7] = target: Neu5Ac(a2-8)Neu5Gc(a2-3)Gal(b1-4)GlcNAc
# Summary of the method: as §1
# [8] = target: Neu5Ac(a2-9)Neu5Ac(a2-3)Gal(b1-4)Glc
# Summary of the method: as §1
# Neu5Ac(b1-6)GalNAc = target: Neu5Ac(b1-6)GalNAc
# Summary of the method: as §1
# Neu5Ac(b2-3)Gal(b1-4)Glc = target: Neu5Ac(b2-3)Gal(b1-4)Glc
# Summary of the method: as §1
# Neu5Ac(b2-6)Gal(b1-4)Glc = target: Neu5Ac(b2-6)Gal(b1-4)Glc
# Summary of the method: as §1
# [9] = target: Neu5Ac(b2-6)Gal(b1-4)GlcNAc
# Summary of the method: as §1
# Neu5Ac(b2-6)GalNAc = target: Neu5Ac(b2-6)GalNAc
# Summary of the method: as §1
# [10] = target: Neu5Ac9Ac(a2-3)Gal(b1-3)GlcNAc
# Summary of the method: as §1
# [11] = target: Neu5Ac9Ac(a2-3)Gal(b1-3)[Fuc(a1-4)]GlcNAc
# Summary of the method: as §1
# [12] = target: Neu5Ac9Ac(a2-3)Gal(b1-4)GlcNAc
# Summary of the method: as §1
# [13] = target: Neu5Ac9Ac(a2-3)Gal(b1-4)[Fuc(a1-3)]GlcNAc
# Summary of the method: as §1
# [14] = target: Neu5Ac9Ac(a2-3)Gal(b1-4)[Fuc(a1-3)]GlcNAc(b1-3)Gal
# Summary of the method: as §1
# [15] = target: Neu5Ac9Ac(a2-6)Gal(b1-4)GlcNAc
# Summary of the method: as §1
# [16] = target: Neu5Ac9Me(a2-3)Gal(b1-4)Glc
# Summary of the method: as §1
# [17] = target: Neu5Gc(a2-3)Gal(b1-3)GlcNAc
# Summary of the method: as §1
# [18] = target: Neu5Gc(a2-3)Gal(b1-3)GlcNAc(b1-3)Gal(b1-4)Glc
# Summary of the method: as §1
# [19] = target: Neu5Gc(a2-3)Gal(b1-3)[Fuc(a1-4)]GlcNAc
# Summary of the method: as §1
# Neu5Gc(a2-3)Gal(b1-4)Glc = target: Neu5Gc(a2-3)Gal(b1-4)Glc
# Summary of the method: as §1
# [20] = target: Neu5Gc(a2-3)Gal(b1-4)GlcNAc
# Summary of the method: as §1
# [21] = target: Neu5Gc(a2-3)Gal(b1-4)GlcNAc(b1-3)Gal(b1-4)GlcNAc(b1-2)Man(a1-3)[Neu5Gc(a2-3)Gal(b1-4)GlcNAc(b1-3)Gal(b1-4)GlcNAc(b1-2)Man(a1-6)]Man(b1-4)GlcNAc(b1-4)GlcNAc
# Summary of the method: as §1
# [22] = target: Neu5Gc(a2-3)Gal(b1-4)[Fuc(a1-3)]GlcNAc
# Summary of the method: as §1
# [23] = target: Neu5Gc(a2-3)Gal(b1-4)[Fuc(a1-3)]GlcNAc(b1-3)Gal
# Summary of the method: as §1
# [24] = target: Neu5Gc(a2-6)Gal(b1-3)GlcNAc(b1-3)Gal(b1-4)Glc
# Summary of the method: as §1
# [25] = target: Neu5Gc(a2-6)Gal(b1-4)GlcNAc
# Summary of the method: as §1
# [26] = target: Neu5Gc(a2-6)Gal(b1-4)GlcNAc(b1-2)Man(a1-3)[Neu5Gc(a2-6)Gal(b1-4)GlcNAc(b1-2)Man(a1-6)]Man(b1-4)GlcNAc(b1-4)GlcNAc
# Summary of the method: as §1
# Neu5Gc(a2-6)GalNAc = target: Neu5Gc(a2-6)GalNAc
# Summary of the method: as §1
# [27] = target: Neu5Gc(a2-8)Neu5Ac(a2-3)Gal(b1-4)GlcNAc
# Summary of the method: as §1
# [28] = target: Neu5Gc(a2-8)Neu5Gc(a2-3)Gal(b1-4)GlcNAc
# Summary of the method: as §1
# [29] = target: Neu5Gc(a2-8)Neu5Gc(a2-3)Gal(b1-4)GlcNAc(b1-3)Gal(b1-4)GlcNAc
# Summary of the method: as §1
# [30] = target: Neu5Gc(a2-8)Neu5Gc(a2-6)Gal(b1-4)GlcNAc
# Summary of the method: as §1
# [31] = target: Neu5Gc(b2-6)Gal(b1-4)GlcNAc
# Summary of the method: as §1
# Rha(a1-6)Glc = target: Rha(a1-6)Glc
# Summary of the method: as §1
# [32] = target: Xyl(a1-6)Glc(b1-4)[Xyl(a1-6)]Glc(b1-4)[Xyl(a1-6)]Glc(b1-4)Glc
# Summary of the method: as §1
# [33] = target: Xyl(b1-2)[Man(a1-3)][Man(a1-6)]Man(b1-4)GlcNAc(b1-4)GlcNAc
# Summary of the method: as §1
# [34] = target: Xyl(b1-2)[Man(a1-3)][Man(a1-6)]Man(b1-4)GlcNAc(b1-4)[Fuc(a1-3)]GlcNAc
# Summary of the method: as §1
# [35] = target: Xyl(b1-4)Xyl(b1-4)Xyl(b1-4)Xyl(b1-4)Xyl
# Summary of the method: as §1
# [36] = target: Xyl(b1-4)Xyl(b1-4)Xyl(b1-4)Xyl(b1-4)Xyl(b1-4)Xyl
# Summary of the method: as §1
binder,measurement,setting,value
B1,glycan array binding signal (z-score),[1],-0.195
same,glycan array binding signal (z-score),[2],-0.195
same,glycan array binding signal (z-score),[3],-0.195
same,glycan array binding signal (z-score),[4],-0.195
same,glycan array binding signal (z-score),[5],-0.195
same,glycan array binding signal (z-score),[6],-0.195
same,glycan array binding signal (z-score),[7],-0.216
same,glycan array binding signal (z-score),[8],-0.195
same,glycan array binding signal (z-score),Neu5Ac(b1-6)GalNAc,-0.202
same,glycan array binding signal (z-score),Neu5Ac(b2-3)Gal(b1-4)Glc,-0.195
same,glycan array binding signal (z-score),Neu5Ac(b2-6)Gal(b1-4)Glc,-0.195
same,glycan array binding signal (z-score),[9],-0.166
same,glycan array binding signal (z-score),Neu5Ac(b2-6)GalNAc,-0.169
same,glycan array binding signal (z-score),[10],-0.192
same,glycan array binding signal (z-score),[11],-0.195
same,glycan array binding signal (z-score),[12],-0.073
same,glycan array binding signal (z-score),[13],-0.195
same,glycan array binding signal (z-score),[14],-0.195
same,glycan array binding signal (z-score),[15],-0.169
same,glycan array binding signal (z-score),[16],-0.195
same,glycan array binding signal (z-score),[17],-0.177
same,glycan array binding signal (z-score),[18],-0.195
same,glycan array binding signal (z-score),[19],-0.162
same,glycan array binding signal (z-score),Neu5Gc(a2-3)Gal(b1-4)Glc,-0.14
same,glycan array binding signal (z-score),[20],-0.178
same,glycan array binding signal (z-score),[21],-0.183
same,glycan array binding signal (z-score),[22],-0.176
same,glycan array binding signal (z-score),[23],-0.195
same,glycan array binding signal (z-score),[24],-0.195
same,glycan array binding signal (z-score),[25],-0.159
same,glycan array binding signal (z-score),[26],-0.195
same,glycan array binding signal (z-score),Neu5Gc(a2-6)GalNAc,-0.162
same,glycan array binding signal (z-score),[27],-0.215
same,glycan array binding signal (z-score),[28],-0.154
same,glycan array binding signal (z-score),[29],-0.195
same,glycan array binding signal (z-score),[30],-0.324
same,glycan array binding signal (z-score),[31],-0.074
same,glycan array binding signal (z-score),Rha(a1-6)Glc,-0.195
same,glycan array binding signal (z-score),[32],-0.195
same,glycan array binding signal (z-score),[33],-0.195
same,glycan array binding signal (z-score),[34],-0.195
same,glycan array binding signal (z-score),[35],-0.195
same,glycan array binding signal (z-score),[36],-0.195
